{"source": "PubChem BioAssay AID686978", "about": "(National Center for Advancing Translational Sciences (NCATS), 2013)", "note": "The campaign covered roughly 420,000 compounds. About 64,000 (15%) were called active. The inconclusive results got no clear call from the source; some entries with a clear call stand among them for comparison. Calls come from the whole dose curve; as a rule, active = well fitted inhibition curve with a large enough effect; inconclusive = small, poorly fitted or top-dose-only effect; inactive = flat fitted curve, though single readings scatter. Potencies of inconclusive entries are left out as doubtful fits. % is set by controls: 0 for no effect and ±100 for the full control effect; potency is the fitted concentration of half-maximal effect; tags give direction and shape of the fitted curve.", "data": [{"experiment": "qHTS for Inhibitors of human tyrosyl-DNA phosphodiesterase 1 (TDP1): qHTS in cells in absence of CPT; note: nearly all actives have a fitted effect of over 55% in size", "settings": "DT40 Tdp1-/- hTDP1 cells, no CPT, ATP luminescence, 48 h; activity change, negative = growth inhibition: at 46.2 µM (top of the series) unless noted", "in_short": "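Readout: luminescence from CellTiter-Glo after 30 min in the dark at RT. Cells: DT40 Tdp1-/- with stable hTDP1, 400/well. Exposure: compounds alone, ≥48 hr, 37 °C.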", "values": [{"smiles": "C1=C(c2ccccc2)Nc2nnnn2C1c1cccs1", "note": "(stereo unspecified)", "Potency": "inconclusive [inhibitor, partial curve, poor fit]"}, {"smiles": "COc1ccc(C)cc1S(=O)(=O)N1CCN(c2cccc(C(F)(F)F)c2)CC1", "Potency": "inconclusive [inhibitor, partial curve, poor fit]"}, {"smiles": "CC(=O)Nc1ccc(-c2csc(NC(=O)Cc3cccc(F)c3)n2)cc1", "Potency": "active: 23.1 µM"}, {"smiles": "NCCC(O)(P(=O)(O)O)P(=O)(O)O", "activity change, negative = growth inhibition": "inactive: 3.06%"}, {"smiles": "Cc1ccc(C)c(S(=O)(=O)N2CCN(C(=O)C3CC3C)CC2)c1", "note": "(stereo unspecified)", "activity change, negative = growth inhibition": "inactive: -27.7%"}, {"smiles": "N#CNC(=Nc1cccc(Cl)c1)Oc1ccccc1", "activity change, negative = growth inhibition": "inactive: -24.7%"}, {"smiles": "COc1ccc(CCn2c(=N)c(C(=O)NCCN3CCOCC3)cc3c(=O)n4cccc(C)c4nc32)cc1OC", "Potency": "inconclusive [inhibitor, single point]"}, {"smiles": "O=C1CN(C(=O)COc2ccc(Cl)cc2Cl)C(c2ccc(F)cc2)c2cc(F)ccc2N1", "note": "(stereo unspecified)", "Potency": "inconclusive [inhibitor, single point]"}, {"smiles": "CCC(=O)N1N=C(c2ccc(NS(=O)(=O)CC)cc2)CC1c1ccc(C)cc1", "note": "(stereo unspecified)", "Potency": "inconclusive [inhibitor, single point]"}, {"smiles": "O=C(c1cc(-c2ccccc2Cl)nc2ccccc12)N1CCC1", "Potency": "inconclusive [inhibitor, single point]"}, {"smiles": "CCCCCCN1CC(C(=O)OCC)C(=O)C1=O", "note": "(stereo unspecified)", "activity change, negative = growth inhibition": "inactive: -13.6%"}, {"smiles": "O=C(CCC(=O)Nc1ccccc1Cl)N/N=C/c1c[nH]c2ccccc12", "activity change, negative = growth inhibition": "inconclusive: -30.6% [inhibitor]"}, {"smiles": "COc1ccc(Oc2ncc3nc(C)c(=O)n(-c4ccc(OC)cc4)c3n2)cc1", "Potency": "inconclusive [inhibitor, partial curve]"}, {"smiles": "COc1ccc(CN2C(=O)C(CC(=O)NCCN3CCOCC3)CC(C(=O)N3CCOCC3)=C2C)cc1", "note": "(stereo unspecified)", "activity change, negative = growth inhibition": "inactive: 1.87%"}, {"smiles": "CCCn1c(N)c(C(=O)COC(=O)CNC(=O)c2ccc(C)c(C)c2)c(=O)n(C)c1=O", "activity change, negative = growth inhibition": "inactive: -14.4%"}, {"smiles": "CCn1c(COc2ccc(C)cc2)nnc1SCC(=O)NCc1ccco1", "activity change, negative = growth inhibition": "inactive: -13.7%"}, {"smiles": "CCCC(C(=O)NC1CCCCC1)N(CC1CCCO1)C(=O)CNS(=O)(=O)c1ccc(F)cc1", "note": "(stereo unspecified)", "Potency": "inconclusive [inhibitor, single point]"}, {"smiles": "COc1ccc(NC2=C(c3ccc(OC)cc3)C(=O)c3ccccc32)cc1", "Potency": "inconclusive [inhibitor, partial curve]"}, {"smiles": "O=C(Nc1ccnn1C1CCN(Cc2ccc(OC(F)F)cc2)CC1)C1CCCC1", "Potency": "inconclusive [inhibitor, single point]"}, {"smiles": "O=C(Nc1cccc(Oc2ccccc2)c1)C1Cc2c(-c3ccccc3)ccnc2O1", "note": "(stereo unspecified)", "Potency": "inconclusive [inhibitor, single point]"}, {"smiles": "CCCS(=O)(=O)N1CCN(C(=O)CCC2CCCC2)CC1", "activity change, negative = growth inhibition": "inactive: -10.2%"}, {"smiles": "CC(NC(=O)c1cccs1)C(S)c1ccccc1", "note": "(stereo unspecified)", "Potency": "inconclusive [inhibitor, single point]"}, {"smiles": "Cc1ccsc1C(=O)N1CCC1(C)C(=O)NCc1cccnc1", "note": "(stereo unspecified)", "activity change, negative = growth inhibition": "inactive: 1.44%"}, {"smiles": "CC(=O)c1c(C)nc(-c2ccccc2)nc1N", "Potency": "inconclusive [inhibitor, single point]"}, {"smiles": "CC(C)c1ccc(Nc2cc(C(=O)NCc3cccs3)c3ccccc3n2)cc1", "Potency": "inconclusive [inhibitor, single point]"}, {"smiles": "O=C(Nc1ccc2c(c1)OCCO2)C(C1CC1)N1CCN(c2ccc(F)cc2)CC1", "note": "(stereo unspecified)", "Potency": "inconclusive [inhibitor, single point]"}, {"smiles": "Cc1cc(NC(=O)CSc2ccc3nnc(CCNS(=O)(=O)c4ccccc4)n3n2)no1", "activity change, negative = growth inhibition": "inactive: -23.6%"}, {"smiles": "O=C(Nc1cccn(Cc2c(Cl)cccc2Cl)c1=O)c1ccccc1Cl", "Potency": "inconclusive [inhibitor, single point]"}, {"smiles": "Cc1cc(Cl)ccc1NC(=O)CSc1nnc(Cc2cccs2)n1Cc1ccco1", "Potency": "inconclusive [inhibitor, partial curve, poor fit]"}, {"smiles": "Cc1cccc(NC(=O)c2ccc(OC3CSC3)cc2)c1", "Potency": "inconclusive [inhibitor, single point]"}, {"smiles": "Cc1ccc(Nc2nc(-c3ccncc3)nc3ccccc23)cc1", "Potency": "inconclusive [inhibitor, single point]"}, {"smiles": "O=C1NC(c2ccc(Br)cc2)Nc2ccccc21", "note": "(stereo unspecified)", "Potency": "active: 3.66 µM"}, {"smiles": "CCOc1ccc(N(CC(=O)Nc2ccc(C)c(C)c2)S(=O)(=O)c2c(C)noc2C)cc1", "Potency": "active: 10.3 µM"}, {"smiles": "O=C(NCc1ccc2c(c1)OCO2)c1ccc(Br)cc1", "activity change, negative = growth inhibition": "inactive: -19.9%"}, {"smiles": "COc1ccc(Cc2c(C3CCCCC3)nc3cc(C)c(Br)c(C)n23)c(C)c1", "Potency": "inconclusive [inhibitor, single point]"}, {"smiles": "CCN(CC)C(=O)COc1ccc2oc(C)c(C(=O)OC)c2c1", "Potency": "inconclusive [inhibitor, partial curve]"}, {"smiles": "CCOC(=O)N1CCc2c(sc(NCc3cccs3)c2C(=O)Nc2cc(OC)ccc2OC)C1", "Potency": "inconclusive [inhibitor, single point]"}, {"smiles": "Cc1cccc(CNc2ccnc(-c3ccccc3Cl)n2)c1", "Potency": "inconclusive [inhibitor, single point]"}, {"smiles": "CCN(CC)C(=O)CSc1nnc2[nH]c(=O)cc(C)n12", "activity change, negative = growth inhibition": "inactive: 20%"}, {"smiles": "CCOc1cc(N2CCOCC2)c(OCC)cc1NC(=O)c1ccc2ccccc2n1", "Potency": "inconclusive [inhibitor, single point]"}, {"smiles": "COc1ccc(OCC(Cn2cnc3ccccc32)OC(C)=O)cc1", "note": "(stereo unspecified)", "Potency": "inconclusive [inhibitor, single point]"}, {"smiles": "CC(CC(=O)N1CCN(c2ccccc2)CC1)c1ccccc1", "note": "(stereo unspecified)", "activity change, negative = growth inhibition": "inactive: -24%"}, {"smiles": "O=C1CC(C(=O)N2CCN(c3ccccn3)CC2)CN1Cc1ccccc1Cl", "note": "(stereo unspecified)", "activity change, negative = growth inhibition": "inactive: -2.65%"}, {"smiles": "COc1ccc(-c2nc(CN3CCN(Cc4ccccc4)CC3)c(C)o2)cc1", "activity change, negative = growth inhibition": "inactive: -13.2%"}, {"smiles": "CC(C)CNC(=O)C1CCN(c2ccc(S(=O)(=O)N3CCOCC3)cc2)CC1", "Potency": "inconclusive [inhibitor, single point]"}, {"smiles": "O=C(Nc1ccc(S(=O)(=O)N2CCCCC2)cc1)c1cccnc1Cl", "Potency": "inconclusive [inhibitor, single point]"}]}]}
